Laboratory results reported in PubChem BioAssay AID1346428 (National Center for Advancing Translational Sciences (NCATS), 2018).
Among all 48,000 compounds or so, about 1,200 (2.5%) were called active. Another 2% or so got no clear call; they are omitted.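 The calls were made as follows: active = activation of at least 60% and not above a set upper limit (about 1 call in 100 departs from these limits); inconclusive = activation of 40% to 60%, or above that upper limit; inactive = activation under 40%.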 Some of the results follow.

Each compound was assayed against Probable G-protein coupled receptor 32 (Homo sapiens) (UniProt O75388) (assay: qHTS for Agonists of Human Resolvin D1 Receptor DRV1). Settings: CHO-K1 GPR32 beta-arrestin PathHunter luminescence, 90 min; at 76.9 µM; stronger effect = higher value; zero percent set by DMSO-only wells.
UniProt O75388, sequence (O75388 whole entry, looked up): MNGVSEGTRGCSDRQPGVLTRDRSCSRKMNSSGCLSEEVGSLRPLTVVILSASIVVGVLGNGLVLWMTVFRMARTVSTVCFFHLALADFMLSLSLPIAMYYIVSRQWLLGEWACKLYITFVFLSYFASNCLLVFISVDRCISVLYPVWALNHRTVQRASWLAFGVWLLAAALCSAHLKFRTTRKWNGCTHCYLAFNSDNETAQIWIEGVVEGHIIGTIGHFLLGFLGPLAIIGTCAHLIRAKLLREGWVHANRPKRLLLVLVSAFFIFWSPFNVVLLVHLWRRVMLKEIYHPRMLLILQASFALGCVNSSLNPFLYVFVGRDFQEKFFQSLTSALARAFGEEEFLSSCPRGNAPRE
How it was run: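 Luminescent readout of beta-Gal complementation quantifies ligand-induced beta-arrestin association with GPR32 in CHO-K1 cells; 90 min compound incubation at 37 °C, detection 1 h at room temperature.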
Also: 0% is about no effect.

activation, inactive:
Cc1sc2ncn(CC(=O)Nc3cccc(C(F)(F)F)c3)c(=O)c2c1S(=O)(=O)N1CCC(C)CC1 -5.49%
Cc1ccc(Cl)cc1NC(=O)Cn1c(=O)c(CNc2ccccc2)cc2cc3c(cc21)OCCO3 -10.4%
CCCCn1c(-c2ccc(S(=O)(=O)N3CCOCC3)cc2)csc1=Nc1ccccc1 -8.33%
COc1ccc(-c2c(C)nn3c4c(cnc23)C(=O)CC(c2ccc(C)cc2)C4)cc1 (stereo not drawn) -2.52%
Cc1c(C(=O)Nc2ccccc2Br)oc2ccc(S(=O)(=O)N3CCCCC3)cc12 0.0871%
Cc1cccc(Cn2c(CN3CCC(C(=O)NCCc4ccccc4)CC3)cc3ccccc32)c1 -33.9%
COc1ccc(C(=O)Nc2cc(C(F)(F)F)ccc2N2CCN(c3ccccc3)CC2)cc1OC -4.09%
CCC(=O)Nc1nnc(S(=O)(=O)N(C)Cc2ccccc2)s1 -8.67%
CCOc1ccccc1NC(=O)c1cccc2c1C(=O)N(C1CCCCC1)C2 -5.44%
COc1cccc(NC(=O)Cn2c(=O)n(-c3ccc(CC(=O)NCC4CCCO4)cc3)c(=O)c3ccccc32)c1 (stereo not drawn) 0.35%
CSc1ncc(Cl)c(C(=O)N(Cc2ccccc2Cl)C2CCS(=O)(=O)C2)n1 (stereo not drawn) 13.2%
CCOc1ccc(C(=O)OCc2cc(=O)n3nc(C4CCCCC4)sc3n2)cc1 23.6%
Cc1cc(C)cc(NC(=O)NCCn2nnc3cc(S(=O)(=O)N(C)C)ccc32)c1 -3.99%
COC(=O)c1cnn(-c2ccc(C(=O)Nc3cccc(C(C)=O)c3)cc2)c1N -4.15%
CCOc1ccc(NC(=O)CC2C(=O)N(c3ccccc3)C(=O)N2CCc2ccc(OC)cc2)cc1 (stereo not drawn) -1.98%
CCCCN(CC)CCNC(=O)Cn1cnc2sc(C)c(S(=O)(=O)N3CCC(C)CC3)c2c1=O 6.19%
O=C1c2oc3ccccc3c(=O)c2C(c2ccc(Br)cc2)N1c1ccccn1 (stereo not drawn) -3.37%
COc1ccc(Cn2c(C(=O)O)c(CNCc3cccc(OC)c3)c3ccc(C)cc32)cc1 9.39%
O=C1CN(C(=O)Cc2ccc(F)cc2)C(c2ccccc2)c2cc(Br)ccc2N1 (stereo not drawn) -0.0388%
Cc1ccc(NC(=O)Cn2nc(C)c3nn(-c4ccc(Cl)cc4)c(C)c3c2=O)cc1C -28.2%
Cn1c(=O)oc2cc(S(=O)(=O)N3CCC(C(=O)NCc4ccccc4Cl)CC3)ccc21 2.15%
CC(=O)c1ccc(N2CCN(S(=O)(=O)c3c(C)nc4sc(C)cn4c3=O)CC2)cc1 -12%
COc1ccc(N2C(=O)CSC23C(=O)N(CC(=O)NC2CCCCC2)c2ccccc23)cc1 (stereo not drawn) -23.5%
CCc1nn(CC(=O)N2CCN(c3cccc(C)c3C)CC2)c(=O)c2cc3occc3n12 -9.71%
Cc1cccc(N2CCN(C(=O)C3CCC(CNS(=O)(=O)c4ccc(Br)s4)CC3)CC2)c1C (stereo not drawn) -1.1%
CCOC(=O)c1[nH]c(C)c(CCC(=O)Nc2c(C)cc(C)cc2C)c1C -6.02%
CCCn1c(SCc2nc(-c3ccccc3C)no2)nnc1-c1ccc(Cl)cc1 -1.12%
Cc1cccc(OCc2cc(=O)n3c(-c4ccccc4)csc3n2)c1C 21%
CCCCn1cc(S(=O)(=O)c2ccc(C)c(C)c2)c(=O)c2cc(F)c(N3CCN(C)CC3)cc21 -11.5%
NC(=O)CSc1oc(-c2ccco2)nc1S(=O)(=O)c1ccc(Br)cc1 -20.7%
Cn1c(CN2CCCCC2)nc2cc(NC(=O)c3cccc(Br)c3)ccc21 -3.53%
CCc1nnc(NC(=O)c2nc(S(=O)(=O)Cc3cccc(C)c3)ncc2Cl)s1 0.634%
CCc1nn(CC(=O)NC(C)CCc2ccccc2)c(=O)c2cc3cc(F)ccc3n12 (stereo not drawn) -1.56%
CCC(C(=O)Nc1ccccc1C(=O)OC)n1c(C)c2cnn(-c3ccccc3)c(=O)c2c1C (stereo not drawn) 1.75%
CCC(Oc1ccccc1)C(=O)Nc1ccc(O)c(-c2nc3cc(C)ccc3o2)c1 (stereo not drawn) -42.7%
CCn1cc(C(=O)NCCCOC(C)C)c(=O)c2cc(S(=O)(=O)N3CCc4ccccc4C3)ccc21 -19.7%
O=C(CN1C(=O)CCSc2ccc(S(=O)(=O)N3CCCC3)cc21)Nc1ccccc1 -3.63%
O=C(Cn1cc(S(=O)(=O)Cc2ccccc2Cl)c2ccccc21)NCc1ccccc1Cl -2%
Cn1c(NCCCCO)nc2c1c(=O)n(Cc1ccc(Cl)cc1)c(=O)n2C 5.86%
O=C1O/C(=C/Br)CCC1c1cccc2ccccc12 (stereo not drawn) -11.9%
COc1ccc(NC(=O)Cn2c(=O)n(CCCC(=O)NCc3ccccc3OC)c(=O)c3ccccc32)cc1Cl -0.0076%
COc1cccc(NC(=O)CCS(=O)(=O)c2ccc3c(c2)oc(=O)n3C)c1 -3.59%
Cc1ccc2c(c1)c1c(c(=O)n(-c3cccc(Cl)c3)c(=O)n1CC(=O)N1CCCC1)n2C 5.05%
CC(O)COc1ccccc1 (stereo not drawn) -1.64%
COc1cc(C2c3c(oc4cc(C)c(C)cc4c3=O)C(=O)N2CCCN2CCOCC2)ccc1O (stereo not drawn) -4.48%
CCOC(=O)c1cc(S(=O)(=O)Nc2ccc(Br)c(C)c2)[nH]n1 22.4%
Cc1c(C(=O)N2CCC(c3nc4ccccc4s3)CC2)oc2cc(Br)ccc12 -9.61%
COc1ccc(Br)cc1CNC(=O)c1cc(=O)[nH]c2ccc(S(=O)(=O)N3CCCC3)cc12 -12.5%
CCOc1ccc(-n2c(SCc3nc(-c4ccc(OC)cc4)no3)nnc2-c2ccncc2)cc1 -9.21%
CCOc1cccc2cc(-c3nc4sc5c(c4c(=O)[nH]3)CCC(C(C)(C)C)C5)c(=O)oc12 (stereo not drawn) 2.27%
CCCNC(=O)c1cc2nc(-c3ccc(Br)cc3)cc(C(F)(F)F)n2n1 -5.4%
CC(C)Cc1ccc(C(C)C(=O)OCc2ccccn2)cc1 (stereo not drawn) -0.967%
COc1ccc(Br)cc1CNC(=O)c1cc2ccccn2n1 40.6%
O=C(COC(=O)c1cc(-c2cccs2)nc2ccccc12)c1ccc(Br)cc1 9.49%
CCOc1ccccc1NC(=O)Cn1c(=O)n(CCC(C)C)c(=O)c2cccnc21 0.0264%
CC1=C(C(=O)Nc2ccccc2)C(c2ccccc2C)n2ncc(C(=O)Nc3ccccc3)c2N1 (stereo not drawn) -24.3%
Cc1cc(C)cc(OCCn2c(C3CC(=O)N(c4ccccc4Cl)C3)nc3ccccc32)c1 (stereo not drawn) 9.99%
Cc1nc2ccccc2n1CCc1nc2c3ccccc3nc(SCc3cccc(F)c3)n2n1 17.9%
Cc1ccc2c(=O)c(C(=O)c3ccccc3)cn(CC(=O)Nc3ccc4c(c3)OCCO4)c2n1 9.71%
CC(C)(C)c1ccc(C2Sc3ccccc3NC3=C2C(=O)c2ccccc23)cc1 (stereo not drawn) -52%
Cn1c(=O)c2sccc2n2c(CCC(=O)NCc3ccc(F)cc3)nnc12 0.546%
COc1ccc(CCNC(=O)CCn2c(=O)c3ccccc3n(CC(=O)Nc3ccccc3F)c2=O)cc1OC 10.4%
Cc1ccccc1OC(=O)c1snnc1C 14.1%
O=C(NCc1ccc(Cl)cc1)c1ccc(CSCc2cccc(Cl)c2)o1 -2.25%
O=C(Cc1ccccc1)N(Cc1cccnc1)c1nc2c(F)cccc2s1 -16.8%
O=C(Nc1ccc(Cl)cc1F)c1oc(=O)c2ccccc2c1-c1ccccc1 -8.69%
CCOc1ccccc1NC(=O)CSc1nc2c(c(=O)[nH]1)CCC2 28.6%
COc1ccc(OCc2nc3ccccc3n2C(C)c2ccccc2)cc1 (stereo not drawn) -21%
Cc1ccnc(NS(=O)(=O)c2ccc(NC(=O)C(C)(C)Oc3ccc(Cl)cc3)cc2)n1 19.8%
CCOc1cccc2cc(-c3cn4c(n3)sc3cc(C)ccc34)c(=O)oc12 -10.3%
Cc1ccc(OCC(=O)Nc2cccc(OCc3cc(=O)n4ccccc4n3)c2)cc1C -7.84%
Cc1cc(C)c2c(CC(=O)Nc3ccc(S(=O)(=O)N4CCCC(C)C4)cc3)coc2c1 (stereo not drawn) -18.3%
Nc1nc(Nc2cccc(C(F)(F)F)c2)sc1C(=O)c1ccccc1 1.17%
CCC(C(=O)Nc1ccc(C(=O)OC)cc1)n1nc(-c2ccc(C)cc2)c2c(c1=O)CCCC2 (stereo not drawn) 2.74%
C=C(C)Cn1c(SCC(=O)c2ccc(OC)cc2)nc2sc3c(c2c1=O)CCCC3 -7.56%
CCOc1cc(C2Nc3ccccc3-c3nnc(SCc4ccccc4)nc3O2)ccc1OC (stereo not drawn) -0.875%
C#CCn1c(COc2ccccc2C)nc2ccccc21 7.69%
COc1cccc(CNC(=O)c2cc3cccc4c3n2CC(C)S4)c1OC (stereo not drawn) -16.1%
Cc1ccc(-c2noc(-c3ccc(N4CCC(C)CC4)c([N+](=O)[O-])c3)n2)cc1 9.34%
Cc1ccc(-n2cc(-c3ccccc3)c3c(NC4CCCC4)ncnc32)cc1 -29.9%
COc1cc2c(=O)c(S(=O)(=O)c3ccc(F)cc3)cn(Cc3ccccc3C)c2cc1OC 17.1%
CCN(Cc1ccccc1)C(=O)C1CCN(c2ncnc3c2nc2n3CCCCC2)CC1 -11.7%

activation, active:
CCN(c1cccc(C)c1)S(=O)(=O)c1nnc(NC(=O)c2cccs2)s1 61.8%
